Measurements as given in paper PMC3353549 (Developmental Cell, 2012).

Target: histone H4 (recombinant) (human, UniProt P62805)
Test: SEC

binding result: binds
B1: CENP-A^H115A/L128A (recombinant) (natural protein)
chain: not shown
